# Experimental data from PubChem BioAssay AID662 (National Center for Advancing Translational Sciences (NCATS), 2007).
# Values joined by “and” are separate entries in the source; they are usually repeats but may differ in a detail not shown here. Equal values may be shown once. Hit rate of the full screen: of about 71,000 compounds, about 1,800 (2.5%) were called active. The shares of active, inactive and inconclusive entries below differ from those in the screen. The call rests on the fitted dose curve; in most records, active means well fitted activation curve with a large enough effect in the signal ratio, with a control signal flat (not every such curve was filed as active); inconclusive means small, poorly fitted or top-dose-only effect, or effect the other way, or a change in a side signal; inactive means flat fitted curve, though single readings scatter; the % refers to the signal ratio. Where the call is inconclusive, the potency comes from a doubtful curve fit.
# Test: Cell signaling CRE-BLA (Fsk stim); on activity change, negative = inhibition: % of control where 0% means no effect
# Conditions: CHO CRE-bla reporter (cAMP response element driving beta-lactamase), forskolin EC10, beta-lactamase ratio
# Procedure, shortened: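 CHO CRE-bla cells, overnight plating in Opti-MEM with 0.5% dialyzed FBS; cpd titration + EC10 NKH 477, 3 h 37 °C; CCF4 2 h RT; ex 405/em 460 vs 530 ratio → %Activity, AC50.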
# [1] = activity change, negative = inhibition: at 38.2 µM (top of the series) unless noted
# Potency means the concentration at half of the fitted maximal effect; tags describe the fitted curve by direction and shape.
smiles,measurement,setting,value
CCOc1ccccc1Oc1c(C)oc2c(CN3CCN(CCO)CC3)c(O)ccc2c1=O,"activity change, negative = inhibition",[1],inactive
N=C(N)SCCc1ccncc1,"activity change, negative = inhibition",[1],inactive: 10.5% [at 7.6 µM]
COC(=O)c1c(C)oc2ccc(OC(=O)N3CCOCC3)cc12,"activity change, negative = inhibition",[1],inactive
CCOC(=O)c1c(NC(=O)CN2CCCCC2)sc2c1CCCC2O (stereo unspecified),Potency,[1],active: 10 µM
O=C(CN1CCN(c2ccccn2)CC1)Nc1ccc(Cl)c(C(F)(F)F)c1,"activity change, negative = inhibition",[1],inconclusive: -19.4%
Cc1cc(C)n(-c2ccc(N3CCOCC3)nn2)n1,"activity change, negative = inhibition",[1],inactive
COc1cccc(C(=O)CSc2nc3ccccc3n2CC(=O)N2CCOCC2)c1,"activity change, negative = inhibition",[1],inconclusive: 26.4%
COc1cccc(Cn2c(=O)c(C)nc3cnc(N4CCOCC4)nc32)c1,Potency,[1],active: 3.16 µM
CCOC(=O)c1c(NC(=O)CN2CCN(c3ccccn3)CC2)sc2c1CCCC2,"activity change, negative = inhibition",[1],inactive
CCOc1ccc(-c2cc(CCCC(=O)NCCCOC)no2)cc1,"activity change, negative = inhibition",[1],inconclusive: -10.8%
COc1ccc(NC(C)=O)c2nc(C)c(C)nc12,Potency,[1],"inconclusive: 15.8 µM [rising, single point]"
Cc1cccc(CNc2ncnc3ccc(-c4ccccc4C#N)cc23)c1,"activity change, negative = inhibition",[1],inconclusive: 18.2%
CC(=O)Nc1coc2ccc(Br)cc12,Potency,[1],"inconclusive: 15.8 µM [falling, single point]"
CCCCOc1ccc(-c2c(C#N)c(N)nc(SCC(N)=O)c2C#N)cc1,Potency,[1],"inconclusive: 3.98 µM [rising, single point]"
CSc1ccc(-c2c(C#N)c(N)nc3c2CCCC3)cc1,"activity change, negative = inhibition",[1],inconclusive: 0.637%
CCN(CC)c1nc(Nc2ccc(Cl)cc2)nc(OCC#N)n1,Potency,[1],active: 5.01 µM
CN(C)c1cccc(-c2nnc(SCCCC#N)o2)c1,"activity change, negative = inhibition",[1],inconclusive: 2.94%
COc1ccc(C(=O)Oc2c(C)occc2=O)cc1OC,Potency,[1],"inconclusive: 20 µM [rising, single point]"
COc1ccccc1NC(=O)CSc1nnc(Cn2nnc(-c3ccccc3)n2)n1-c1ccccc1,Potency,[1],"inconclusive: 20 µM [rising, single point]"
CCCCC(CC)Cn1c(N)c(C#N)c2nc3ccccc3nc21 (stereo unspecified),Potency,[1],"inconclusive: 12.6 µM [rising, partial curve]"
CCN1C=C(C(=O)OC)C(c2cccc(C)c2)C(C(=O)OC)=C1,Potency,[1],"inconclusive: 10 µM [rising, partial curve]"
COc1ccc(-n2ncc3c(=O)n(CC(=O)OCc4ccccc4)cnc32)cc1,"activity change, negative = inhibition",[1],inactive
CCOC(=O)COc1ccc2c(c1)C(=O)CC(C)(C)O2,"activity change, negative = inhibition",[1],inconclusive: 10.2%
CC/C(=C(\c1ccccc1)c1ccc(OCCN(C)C)cc1)c1ccccc1,"activity change, negative = inhibition",[1],inconclusive: -15.8%
same,"activity change, negative = inhibition",at 17.1 µM (top of the series),inactive: -0.494%
same,"activity change, negative = inhibition",at 38.2 µM (top of the series),inactive: -2.6% and inactive: -9.19%
